# In all, about 360,000 compounds went through this assay and about 16,000 (4.4%) were called active. Inconclusive results, whose numbers are uncertain, are shown with a selection of clear calls. Calls come from the whole dose curve; as a rule, active = well fitted inhibition curve with a large enough effect; inconclusive = small, poorly fitted or top-dose-only effect; inactive = no such curve, though single readings can be large or run the other way. Where the call is inconclusive, the potency comes from a doubtful curve fit.
# Molecular target: Bromodomain adjacent to zinc finger domain protein 2B (Homo sapiens) (UniProt Q9UIF8)
# Assay: qHTS Assay for Inhibitors of BAZ2B; note: nearly all actives have a fitted effect of over 60% in size
# Details: AlphaScreen BAZ2B-H3K14Ac peptide displacement; activity change, negative = inhibition: at 114 µM (top of the series)
# Outline: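 BAZ2B 50 nM plus b-H3(5-23)K14Ac 50 nM, PBS pH 7.4/0.01% Tween-20, 30 min RT; compound added (max 110 uM), 30 min RT; streptavidin donor/Ni-chelate acceptor beads 10 ug/mL final, 20 min dark; AlphaScreen read.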
# % is set by controls: 0 for no effect and ±100 for the full control effect; potency is the fitted concentration of half-maximal effect; tags give direction and shape of the fitted curve.
# UniProt Q9UIF8, sequence (Q9UIF8 whole entry, looked up, the tested form may be a part): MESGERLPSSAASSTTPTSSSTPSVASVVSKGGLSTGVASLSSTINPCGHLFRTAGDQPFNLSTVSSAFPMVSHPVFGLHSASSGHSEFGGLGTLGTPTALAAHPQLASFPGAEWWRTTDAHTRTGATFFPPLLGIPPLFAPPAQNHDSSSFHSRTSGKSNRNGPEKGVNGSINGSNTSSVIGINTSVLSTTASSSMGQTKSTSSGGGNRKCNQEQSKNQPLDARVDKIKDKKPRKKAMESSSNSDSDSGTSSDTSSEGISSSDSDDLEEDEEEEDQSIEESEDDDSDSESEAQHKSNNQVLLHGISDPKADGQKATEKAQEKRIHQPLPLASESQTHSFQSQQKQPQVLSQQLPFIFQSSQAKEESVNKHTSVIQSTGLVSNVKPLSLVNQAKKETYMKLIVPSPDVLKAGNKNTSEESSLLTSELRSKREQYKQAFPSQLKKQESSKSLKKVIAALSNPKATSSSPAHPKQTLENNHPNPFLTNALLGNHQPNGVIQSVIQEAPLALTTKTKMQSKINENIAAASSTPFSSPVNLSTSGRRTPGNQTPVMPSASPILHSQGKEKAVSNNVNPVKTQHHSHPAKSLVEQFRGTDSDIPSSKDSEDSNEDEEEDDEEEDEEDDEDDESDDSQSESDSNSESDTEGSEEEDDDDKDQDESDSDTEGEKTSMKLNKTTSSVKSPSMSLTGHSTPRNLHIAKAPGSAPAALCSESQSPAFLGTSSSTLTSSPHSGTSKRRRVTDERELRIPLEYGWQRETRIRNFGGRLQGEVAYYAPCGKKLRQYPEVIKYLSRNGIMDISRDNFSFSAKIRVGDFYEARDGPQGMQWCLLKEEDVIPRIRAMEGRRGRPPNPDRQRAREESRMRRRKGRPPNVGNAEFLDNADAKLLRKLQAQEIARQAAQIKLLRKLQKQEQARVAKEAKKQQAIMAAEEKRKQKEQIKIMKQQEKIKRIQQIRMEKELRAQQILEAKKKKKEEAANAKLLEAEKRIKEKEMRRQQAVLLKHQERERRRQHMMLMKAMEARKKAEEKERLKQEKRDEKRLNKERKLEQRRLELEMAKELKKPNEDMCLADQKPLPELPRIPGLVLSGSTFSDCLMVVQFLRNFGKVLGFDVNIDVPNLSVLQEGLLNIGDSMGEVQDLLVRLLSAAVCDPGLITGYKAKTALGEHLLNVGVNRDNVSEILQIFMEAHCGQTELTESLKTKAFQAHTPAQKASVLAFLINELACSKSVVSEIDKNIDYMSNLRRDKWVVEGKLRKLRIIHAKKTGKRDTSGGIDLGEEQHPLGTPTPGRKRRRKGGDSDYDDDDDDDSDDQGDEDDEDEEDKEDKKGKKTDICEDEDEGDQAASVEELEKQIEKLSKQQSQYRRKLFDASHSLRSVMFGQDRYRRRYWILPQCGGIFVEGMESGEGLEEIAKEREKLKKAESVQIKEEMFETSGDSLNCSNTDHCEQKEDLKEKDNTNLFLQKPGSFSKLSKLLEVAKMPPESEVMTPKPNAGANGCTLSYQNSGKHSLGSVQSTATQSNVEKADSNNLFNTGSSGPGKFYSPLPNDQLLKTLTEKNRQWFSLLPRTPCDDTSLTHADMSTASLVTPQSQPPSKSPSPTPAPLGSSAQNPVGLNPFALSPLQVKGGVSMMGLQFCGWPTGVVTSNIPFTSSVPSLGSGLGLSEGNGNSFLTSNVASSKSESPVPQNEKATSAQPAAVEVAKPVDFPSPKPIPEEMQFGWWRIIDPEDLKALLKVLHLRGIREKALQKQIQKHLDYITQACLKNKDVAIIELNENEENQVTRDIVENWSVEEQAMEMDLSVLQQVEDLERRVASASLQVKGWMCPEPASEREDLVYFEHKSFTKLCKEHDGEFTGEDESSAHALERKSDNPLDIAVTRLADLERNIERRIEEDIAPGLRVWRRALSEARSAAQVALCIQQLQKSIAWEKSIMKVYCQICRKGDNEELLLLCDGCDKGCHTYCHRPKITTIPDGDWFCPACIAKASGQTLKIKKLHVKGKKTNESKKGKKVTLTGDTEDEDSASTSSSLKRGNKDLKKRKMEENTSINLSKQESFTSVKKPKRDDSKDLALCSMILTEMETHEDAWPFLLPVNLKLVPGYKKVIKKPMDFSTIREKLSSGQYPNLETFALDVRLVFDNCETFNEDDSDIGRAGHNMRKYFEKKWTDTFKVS
Compound,"activity change, negative = inhibition",Potency
CCC(NC(=O)CCC(=O)N1CCN(S(=O)(=O)c2ccc(C)cc2)CC1)c1ccc(C)cc1 (configuration not stated),inactive: -0.797%,–
Cc1ccc2c(c1)c1c(n2CC(O)CN2CCCCC2C)CCCC1 (configuration not stated),–,"inconclusive: 44.7 µM [inhibitor, partial curve]"
Cc1cccc(Nc2nc(N)nc(CN3CCN(Cc4ccc5c(c4)OCO5)CC3)n2)c1,–,"inconclusive: 89.1 µM [inhibitor, single point]"
COc1cc(CNCCN(C)C)c(Br)cc1OC1CCCC1,inactive: -21.7%,–
COC(=O)c1cccc(N2C(=O)c3cccnc3C2=O)c1,inactive: -113%,–
Cc1ccc2cccc(OCC(=O)NCc3ccco3)c2n1,inactive: -11.1%,–
CCc1ccc(/C=C2/Sc3ccccc3N(CC(=O)NCCCOC)C2=O)cc1,–,"inconclusive: 89.1 µM [inhibitor, single point]"
CCOC(=O)c1c(C)oc2nc(C)nc(Nc3cc(C)cc(C)c3)c12,inactive: -6.25% [at 57.1 µM],–
Cc1ccc(C)c(OCC(=O)Nc2ccc(N3CCOCC3)cc2N2CCOCC2)c1,–,"inconclusive: 79.4 µM [inhibitor, single point]"
CCOC(=O)c1sc2nc3n(c(=O)c2c1C)CCC(C)CC3 (configuration not stated),inactive: 10.9%,–
COc1cc(C#Cc2c(-c3cncn3C)n(C)c3ccc(-c4cnc(OC)nc4)cc23)cc(OC)c1,–,active: 50.1 µM
CCOC(=O)c1c(NC(=S)Nc2cccnc2)sc(C)c1C,–,"inconclusive: 79.4 µM [inhibitor, single point]"
O=C(C1=C[C@H](c2ccc3c(c2)OCO3)C[C@H](OCCCCO)O1)N1CCN(Cc2ccc3c(c2)OCO3)CC1,–,"inconclusive: 50.1 µM [inhibitor, partial curve]"
O=C(c1ccco1)N1CCN(C(c2ccccc2F)c2nnnn2CC2CCCO2)CC1 (configuration not stated),–,"inconclusive: 89.1 µM [inhibitor, single point]"
COc1cc(C#CC#CCN2CCCCC2)ccc1O,–,"inconclusive: 89.1 µM [inhibitor, single point]"
CCOC(=O)c1c(NC(=S)Nc2ccc(OC)cc2)sc2c1CCC2,–,"inconclusive: 31.6 µM [inhibitor, partial curve]"
COC1=C(OC)C(=O)C(CCCCCCCCCCO)=C(C)C1=O,–,active: 50.1 µM
CC(=O)c1c(C)[nH]c(C(=O)CSc2nnc(C3CCCCC3)n2N)c1C,–,"inconclusive: 89.1 µM [inhibitor, single point]"
CC(=O)Nc1ccccc1-c1nc2ccccc2n(C(C)C(=O)Nc2cc(Cl)ccc2C)c1=O (configuration not stated),–,"inconclusive: 89.1 µM [inhibitor, single point]"
Cc1c([N+](=O)[O-])cc(C(=O)Oc2cccc(C(=S)N3CCOCC3)c2)cc1[N+](=O)[O-],–,"inconclusive: 25.1 µM [inhibitor, full curve]"
CCN(CC)S(=O)(=O)c1nnc(NC(=O)COc2ccc(C)cc2)s1,–,"inconclusive: 89.1 µM [inhibitor, single point]"
O=C(CCCN=C1NS(=O)(=O)c2ccccc21)OCC(=O)c1ccccc1Cl,inactive: 6.47%,–
O=C1Nc2cc(S(=O)(=O)N3CCCC3)ccc2N2CCCC12 (configuration not stated),–,"inconclusive: 39.8 µM [inhibitor, partial curve]"

Compound,"activity change, negative = inhibition",Potency
COCCCNC(=O)c1nc2ccccc2c(=O)n1NC(=O)Nc1c(Cl)cccc1Cl,–,"inconclusive: 0.708 µM [inhibitor, full curve, poor fit]"
Cc1ccc(C(=O)Nc2ccccc2N2CCCC2)cc1S(=O)(=O)N1CCOCC1,–,"inconclusive: 89.1 µM [inhibitor, single point]"
CCOC(=O)N1CCC(Nc2ccc(N3C(=O)C4CCCCC4C3=O)cc2[N+](=O)[O-])CC1 (configuration not stated),–,"inconclusive: 50.1 µM [inhibitor, partial curve]"
COc1cccc(NC(=S)N(CCCN2CCCC2)Cc2cccn2Cc2ccc(Cl)cc2)c1,inactive: -37.7%,–
CN(C)c1ccc(NC(=O)CC(NCc2ccccn2)C(=O)O)cc1 (configuration not stated),–,active: 5.62 µM
CCOC(=O)CN1C(=O)C(O)=C(C(C)=O)C1c1ccc([N+](=O)[O-])cc1 (configuration not stated),–,"inconclusive: 0.708 µM [inhibitor, partial curve, poor fit]"
N#Cc1ccc(C(=O)NC2=NCCS2)cc1,–,"inconclusive: 89.1 µM [inhibitor, single point]"
Cc1[nH]c2ccccc2c1SCC(=O)N1CCN(c2ccccc2)CC1,–,"inconclusive: 89.1 µM [inhibitor, single point]"
COc1cccc(NC(=S)N2CCN(C/C=C/c3ccccc3)CC2)c1,–,"inconclusive: 50.1 µM [inhibitor, partial curve]"
O=[N+]([O-])c1ccc(C(c2sc3nc(-c4ccco4)nn3c2O)N2CCN(Cc3ccccc3)CC2)cc1 (configuration not stated),–,"inconclusive: 44.7 µM [inhibitor, partial curve]"
CCC(c1nc2ccccc2c(=O)n1-c1cccnc1)N1C(=O)c2ccccc2C1=O (configuration not stated),inactive: 1.58%,–
Cc1ccccc1Cn1ccc(NC(=O)c2cc3ncc(Br)cn3n2)n1,–,active: 50.1 µM
COCCn1c(-c2ccccc2)c(C)n2c3c(=O)n(C)c(=O)n(C)c3nc12,–,"inconclusive: 56.2 µM [inhibitor, partial curve]"
C/C(=N\NS(=O)(=O)c1ccccc1)c1cc(Cl)cc(Cl)c1O,–,"inconclusive: 44.7 µM [inhibitor, partial curve]"
CCOC(=O)Cn1c(C2CC(=O)N(c3ccc(C)cc3)C2)nc2ccccc21 (configuration not stated),–,"inconclusive: 44.7 µM [inhibitor, partial curve]"
C=CCn1c(SCC(=O)N2CCc3ccccc3C2)nc2sc(C)cc2c1=O,–,"inconclusive: 70.8 µM [inhibitor, single point]"
COc1cccc(N2CCN(C(=O)c3oc4ccccc4c3NC(=O)CCc3cc(OC)no3)CC2)c1,–,"inconclusive: 31.6 µM [inhibitor, full curve]"
CCn1c(SCC(=O)N/N=C/C=C/c2ccco2)nnc1-c1ccc(OC)cc1,–,"inconclusive: 56.2 µM [inhibitor, partial curve]"
COc1ccc(CNC(=O)CSCc2nc(-c3ccccc3F)oc2C)cc1,–,"inconclusive: 89.1 µM [inhibitor, single point]"
Cc1ccc(/C=C/C(=O)N2CCN(c3ccc(F)cc3)CC2)o1,–,"inconclusive: 50.1 µM [inhibitor, partial curve]"
O=C(N/N=C\c1ccccc1)c1ccccc1-n1cccc1,–,"inconclusive: 79.4 µM [inhibitor, single point]"
COc1ccc(CNC(=O)CN(Cc2ccccc2)C(=O)CCC(=O)Nc2nccs2)cc1,–,"inconclusive: 89.1 µM [inhibitor, single point]"
C=C(C)C(=O)Nc1cccc(C2=NOC3(C2)C[C@H](C(N)=O)N(C(=O)c2ccccc2)C3)c1 (some centres not stated),–,active: 44.7 µM

Compound,"activity change, negative = inhibition",Potency
COc1ccc(OCC(=O)NNC(=O)c2cccnc2)cc1,–,"inconclusive: 89.1 µM [inhibitor, single point]"
COc1cccc(Nc2cc(N3CCOCC3)c3nonc3c2[N+](=O)[O-])c1,–,"inconclusive: 79.4 µM [inhibitor, single point]"
COc1ccc2c(c1)-c1nc(NC(=O)c3ccco3)sc1CC2,inactive: -28.2%,–
CCc1nnc(NC(=O)Cn2nc(-c3ccc(OC)c(OC)c3)ccc2=O)s1,–,"inconclusive: 31.6 µM [inhibitor, single point]"
CCO[C@H]1OC(C(=O)O)=C[C@@H](C)[C@@H]1CCCO,inactive: -1.24%,–
O=C1N=C(N2CCOCC2)S/C1=C/c1cccs1,inactive: 2.08% [at 57.1 µM],–
CCOc1ccc(CN2CCN(Cc3[nH]c4ccccc4c3C)CC2CCO)cc1 (configuration not stated),–,"inconclusive: 50.1 µM [inhibitor, partial curve]"
O=S(=O)(NCc1ccccn1)c1ccccn1,–,"inconclusive: 89.1 µM [inhibitor, single point]"
Cc1cc2nc(NCCCO)n(CC(=O)c3cc(C(C)(C)C)c(O)c(C(C)(C)C)c3)c2cc1C,–,"inconclusive: 70.8 µM [inhibitor, single point]"
CCOCCCn1c(=S)[nH]c2cc(C(=O)N3CCN(C)CC3)ccc2c1=O,–,"inconclusive: 100 µM [inhibitor, single point]"
Cc1ccc(-c2nc3[nH]c(=O)cc(NC(=O)C(C)C)n3n2)cc1,inactive: -0.845%,–
Nc1cc(C(F)(F)F)ccc1NCCc1ccccn1,–,"inconclusive: 44.7 µM [inhibitor, partial curve]"
CCCCc1nc2sc3c(SCC(=O)NCc4ccco4)ncnc3c2c2c1CCC2,–,"inconclusive: 89.1 µM [inhibitor, single point]"
Cc1ccccc1OCCSCc1nc2ccccc2[nH]1,inactive: 6.67%,–
Cc1cc(C)cc(NC(=O)CSc2nccn2-c2ccccc2)c1,–,"inconclusive: 50.1 µM [inhibitor, partial curve]"
N#Cc1c(NC(=O)CSc2nc(N)cc(=O)[nH]2)sc2c1CCCC2,–,"inconclusive: 89.1 µM [inhibitor, single point]"
CC(C)(C)c1ccc(CNC(=O)C2CCCN2C(=O)Nc2ccccc2)cc1 (configuration not stated),inactive: 10.1%,–
CCCCc1ccc(NC(=S)N2CCN(C)CC2)cc1,–,"inconclusive: 79.4 µM [inhibitor, single point]"
COc1cccc(C(=O)NC2CCCc3c2cnn3-c2ccc(C)c(C)c2)c1OC (configuration not stated),–,"inconclusive: 50.1 µM [inhibitor, partial curve]"
COCCCNCCOc1ccc(C)cc1[N+](=O)[O-],–,"inconclusive: 89.1 µM [inhibitor, single point]"
COc1ccc(N2CCN(CCCNC(=O)C3COc4ccc(OC)cc4C3)CC2)cc1 (configuration not stated),–,"inconclusive: 35.5 µM [inhibitor, partial curve]"

# — PubChem BioAssay AID504333 (National Center for Advancing Translational Sciences (NCATS), 2011)
